Some of the results follow. Each Rep nickase domain was tested in vitro on the same pool of single strands at 3 µM enzyme and 37 °C for 1 h; the strands have 90 letters, of which the middle is given. The score is log2 (uncut reads / reads without enzyme); strong cutting gives strongly negative numbers. There is no active / inactive call. Reads are scaled to the total; values above 0 arise when much of the pool is cut.
How the values were obtained:
Experiment in all cases: uncleaved DNA left, log2 of reads against the no-enzyme library (log2 ratio); higher = less cleavage (more negative = more Rep cleavage of the k-mer); sequences stand for … in CTCGTCCG…ACCGGAGA
[1] = test system: T1, Rep nickase domain of Muscovy duck circovirus
T1 sequence (residues 1-111, tag not shown): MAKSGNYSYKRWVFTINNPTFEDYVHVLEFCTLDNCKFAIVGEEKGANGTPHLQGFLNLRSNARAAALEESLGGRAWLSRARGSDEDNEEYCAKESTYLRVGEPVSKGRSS
Procedure: (§1)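 A pool of 90-nt single-stranded DNAs with seven random bases just before the constant AC of the nick site (name = the seven bases) was cut by 3 µM recombinant His6-SUMO-tagged Rep nickase domain (300 nM DNA, 50 mM HEPES pH 8.0, 50 mM NaCl, 1 mM MnCl2, 1 h, 37 °C, three replicates). Uncut DNA was amplified and sequenced.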

[2] = test system: T2, Rep nickase domain of banana bunchy top virus
T2 sequence (residues 1-94, tag not shown): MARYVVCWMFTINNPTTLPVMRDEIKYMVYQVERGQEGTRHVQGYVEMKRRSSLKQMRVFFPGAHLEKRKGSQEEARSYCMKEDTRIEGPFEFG
Procedure: as §1

[3] = test system: T3, Rep nickase domain of cabbage leaf curl virus
T3 sequence (residues 1-116, tag not shown): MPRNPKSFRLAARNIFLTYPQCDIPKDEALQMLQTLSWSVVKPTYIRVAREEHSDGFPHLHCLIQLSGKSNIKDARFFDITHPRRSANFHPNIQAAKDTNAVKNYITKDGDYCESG
Procedure: as §1

[4] = test system: T4, Rep nickase domain of chickpea chlorotic dwarf virus
T4 sequence (residues 1-124, tag not shown): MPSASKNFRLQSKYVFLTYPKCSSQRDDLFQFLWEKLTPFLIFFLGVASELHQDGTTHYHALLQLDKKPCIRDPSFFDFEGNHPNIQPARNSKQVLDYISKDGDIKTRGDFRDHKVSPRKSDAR
Procedure: as §1

[5] = test system: T5, Rep nickase domain of faba bean necrotic yellows virus
T5 sequence (residues 1-98, tag not shown): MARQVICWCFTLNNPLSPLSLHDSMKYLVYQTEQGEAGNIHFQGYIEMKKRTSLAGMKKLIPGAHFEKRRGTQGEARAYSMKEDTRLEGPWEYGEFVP
Procedure: as §1

[6] = test system: T6, Rep nickase domain of maize striate mosaic virus
T6 sequence (residues 1-117, tag not shown): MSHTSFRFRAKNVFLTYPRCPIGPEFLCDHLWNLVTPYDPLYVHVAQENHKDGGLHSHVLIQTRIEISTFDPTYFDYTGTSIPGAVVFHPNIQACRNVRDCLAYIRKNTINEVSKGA
Procedure: as §1

[7] = test system: T7, Rep nickase domain of porcine circovirus 2
T7 sequence (residues 2-116, tag not shown): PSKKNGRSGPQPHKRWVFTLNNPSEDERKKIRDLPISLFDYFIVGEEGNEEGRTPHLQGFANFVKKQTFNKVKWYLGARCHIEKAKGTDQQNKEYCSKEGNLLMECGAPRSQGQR
Procedure: as §1

[8] = test system: T8, Rep nickase domain of tomato yellow leaf curl virus
T8 sequence (residues 1-136, tag not shown): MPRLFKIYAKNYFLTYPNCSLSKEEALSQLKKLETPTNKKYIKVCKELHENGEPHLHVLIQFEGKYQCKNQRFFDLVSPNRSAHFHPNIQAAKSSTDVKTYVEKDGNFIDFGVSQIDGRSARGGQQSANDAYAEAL
Procedure: as §1

[9] = test system: T9, Rep nickase domain of wheat dwarf virus
T9 sequence (residues 1-137, tag not shown): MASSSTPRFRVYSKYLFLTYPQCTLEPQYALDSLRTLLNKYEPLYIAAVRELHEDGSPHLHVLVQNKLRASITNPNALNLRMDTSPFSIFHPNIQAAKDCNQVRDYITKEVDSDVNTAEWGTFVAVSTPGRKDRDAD
Procedure: as §1

Sequence	uncleaved DNA left (log2) [1]	uncleaved DNA left (log2) [2]	uncleaved DNA left (log2) [3]	uncleaved DNA left (log2) [4]	uncleaved DNA left (log2) [5]	uncleaved DNA left (log2) [6]	uncleaved DNA left (log2) [7]	uncleaved DNA left (log2) [8]	uncleaved DNA left (log2) [9]
CTGAGTG	-0.0469	-0.00279	-0.342	-0.254	-0.00683	-0.791	-0.0476	-0.0288	-0.187
ATGACTA	0.0132	0.0651	-0.0718	0.685	0.0992	0.475	-0.0188	0.0587	0.186
GGACACC	0.104	0.0264	0.757	1.8	-0.0577	2.19	0.231	0.0219	0.211
AAAAGGC	0.0604	0.091	-0.0433	-0.0758	0.088	-0.781	0.221	0.0831	0.107
TGATTTT	-3.55	-0.109	-0.31	-2.4	0.0628	-0.244	-3.59	0.122	-0.917
CAGCGGC	-0.0372	0.00799	-0.211	-0.354	0.0717	-0.702	0.0776	-0.109	0.016
CGACGCA	0.0727	0.0773	0.00882	0.771	-0.0346	1.56	0.0102	0.0124	0.148
GACATCC	-0.0689	0.0261	0.567	1.24	-0.111	1.68	0.113	-0.0181	0.111
GGTCGGT	0.0409	-0.104	0.549	1.14	-0.021	1.69	0.0829	0.021	0.0093
CTTTAAA	-0.154	-0.0279	-0.112	-0.356	-0.0565	-0.755	-0.0754	-0.109	-0.117
GCCTTAA	0.0719	-0.0462	0.0725	0.333	-0.0471	0.442	-0.0503	-0.13	-0.0693
GAACTGC	-0.0518	0.0182	0.0495	0.214	0.0322	0.164	0.0404	-0.0952	0.096
CGCTGGC	-0.0908	-0.177	-0.169	0.055	-0.0545	-0.27	-0.053	-0.155	-0.0978
TAATAAA	-0.327	0.00271	-2.32	-2.53	0.133	-0.83	-0.425	0.0912	-1.14
GCAAGAC	0.0218	0.0634	0.305	0.809	-0.0407	0.329	0.175	0.0594	0.0806
ATGGGGG	0.0101	-0.14	-0.13	0.0446	-0.00614	-0.441	0.109	-0.125	-0.235
CCCCGGC	0.0325	-0.0117	0.212	0.305	0.147	-0.202	0.187	-0.0382	-0.068
AGACAAG	0.15	0.137	-0.315	-0.0882	0.223	-0.762	0.206	0.177	0.178
GCATTCA	-0.031	0.0156	0.131	-0.144	0.061	-0.0666	0.0385	0.0487	0.0285
GAGTCAA	0.0353	0.141	0.457	1.12	0.00606	1.45	-1.7	0.151	0.185

Sequence	uncleaved DNA left (log2) [1]	uncleaved DNA left (log2) [2]	uncleaved DNA left (log2) [3]	uncleaved DNA left (log2) [4]	uncleaved DNA left (log2) [5]	uncleaved DNA left (log2) [6]	uncleaved DNA left (log2) [7]	uncleaved DNA left (log2) [8]	uncleaved DNA left (log2) [9]
ATCACGT	0.00774	-0.0442	-0.172	-0.504	-0.072	-0.827	0.0496	-0.0724	-0.0864
TATACAA	0.075	0.0179	0.084	-0.671	0.0635	-0.148	0.115	0.0805	0.0948
CGTCTCG	0.0287	0.155	-0.626	-0.3	0.104	-0.647	0.239	0.0408	-0.0545
CGTGGAT	-0.0376	0.0777	0.202	1.5	0.0535	1.79	0.0617	-0.0902	0.0316
CCTACGA	0.0907	-0.113	-0.0652	-0.99	-0.0591	-0.85	0.147	-0.0716	-0.0276
TAGGCTA	-0.0302	0.016	0.194	-0.702	-0.0511	0.67	-0.313	0.0337	-0.00054
GCCCGGC	-0.079	-0.133	0.0227	0.371	-0.14	-0.252	-0.0242	-0.151	-0.241
ACCTGCG	-0.0387	-0.107	0.47	1.75	-0.0481	2.03	-0.00503	-0.25	-0.0791
GCCCCGG	-0.153	-0.0845	0.38	1.16	-0.0619	1.71	0.0337	-0.192	-0.124
ATGGTTC	0.131	-0.067	0.116	-0.854	-0.151	0.339	0.101	-0.13	-0.0576
CATCCCT	0.0833	0.0226	-0.205	-2.4	0.0487	-0.407	-0.392	0.106	0.0802
GTTTCTA	0.0641	0.109	0.385	0.94	0.0109	1.86	0.0617	0.0716	0.149
CAGGCCA	0.0533	0.208	0.218	-0.642	0.098	0.178	-0.0339	0.204	0.202
CCCAGTA	0.00909	0.14	0.102	-0.991	0.148	-0.619	0.15	0.113	-0.0499
CAGAATC	0.087	0.102	0.0475	-0.178	-0.0274	-0.334	-0.0829	-0.0458	-0.042
AGGCCAT	-0.00401	0.0295	0.63	1.57	0.0415	1.95	0.116	0.039	0.226
TTAGGGG	0.0431	-0.119	0.336	0.604	-0.0532	0.46	0.111	-0.0741	-0.0709
TTAGCTG	0.00593	-0.00116	0.32	1.33	-0.039	1.65	0.0726	-0.104	-0.02
TTGATCC	-0.0946	-0.0778	0.112	0.0171	-0.172	-0.303	-0.082	-0.0679	-0.0953
CGCAAGC	-0.0232	-0.045	0.222	0.551	-0.0366	0.0452	-0.0342	-0.107	0.0678

Sequence	uncleaved DNA left (log2) [1]	uncleaved DNA left (log2) [2]	uncleaved DNA left (log2) [3]	uncleaved DNA left (log2) [4]	uncleaved DNA left (log2) [5]	uncleaved DNA left (log2) [6]	uncleaved DNA left (log2) [7]	uncleaved DNA left (log2) [8]	uncleaved DNA left (log2) [9]
CTCGCCC	-0.142	-0.165	-0.066	-0.283	-0.0699	-0.369	-0.339	-0.284	-0.26
TTCCATA	0.0634	0.266	0.184	-0.485	0.114	0.199	0.0508	0.322	0.114
TAAAAGT	0.0156	-0.138	-3.39	-3.24	-0.0104	-1.98	-0.789	-0.0112	-3.39
TATTCAA	-1.52	-0.235	0.191	-0.361	-0.0495	-0.286	-0.435	0.0248	0.0592
ACTGGTG	0.0104	0.0362	-0.733	-0.182	0.0331	-0.869	0.133	0.0228	-0.0904
GAAGTTG	0.000917	-0.0661	0.186	0.843	-0.00111	0.915	0.0279	-0.15	-0.0299
GCCCTTT	-0.197	-0.0761	0.00976	-0.738	-0.282	0.24	-0.191	-0.212	-0.0312
CGCAGAG	0.0615	0.0228	-0.423	-0.436	0.0999	-0.77	0.274	0.0242	-0.0709
TAAAAGG	0.106	0.00875	0.0923	0.412	0.0212	0.987	0.226	-0.115	0.016
CACTGGG	-0.0402	-0.222	-0.643	-0.799	-0.0155	-1.3	0.0256	-0.0542	-0.261
GAAGTCT	0.0941	0.0369	-0.2	-1.91	0.0551	0.42	-0.311	0.0289	-0.0824
CTTAGGA	0.141	0.15	0.162	0.541	0.151	-0.23	0.29	0.103	0.228
CACGCAG	-0.0612	-0.0436	-0.731	-0.557	-0.0491	-0.863	0.118	0.0463	-0.146
TAATGCG	0.0246	0.0342	-0.178	0.959	0.14	0.931	0.18	-0.0235	-0.0672
CCCGTGA	0.0521	0.107	0.37	0.144	0.157	-0.584	0.18	0.117	0.173
AGACGGG	0.0535	0.0431	-0.114	0.0636	0.0308	-0.415	0.149	0.0856	-0.014
ACCCGGT	0.0738	-0.0575	-0.0909	0.33	0.0246	0.0308	-0.0953	-0.0601	-0.0434
ATAGTCG	0.0894	-0.139	-0.788	0.0674	0.0977	-0.887	0.228	0.0584	-0.0498
GGAACTT	0.104	0.17	0.887	2	-0.0242	2.26	0.172	0.0518	0.222
GGTGTGC	-0.0314	-0.0272	0.242	0.658	-0.0291	0.594	0.0577	-0.0893	0.0263
